Measured values published in article PMC4336329 (PLoS ONE, 2015).
About 2,200 (0.71%) of roughly 310,000 compounds showed an effect of 50% or more. Effects have a minus sign here. The list shows a part of the results.

biological target: human ether-à-go-go-related gene (hERG) potassium channel (human, UniProt Q12809); test: primary screen, population patch clamp on CHO cells stably expressing hERG
Sequence (Q12809 whole entry, looked up): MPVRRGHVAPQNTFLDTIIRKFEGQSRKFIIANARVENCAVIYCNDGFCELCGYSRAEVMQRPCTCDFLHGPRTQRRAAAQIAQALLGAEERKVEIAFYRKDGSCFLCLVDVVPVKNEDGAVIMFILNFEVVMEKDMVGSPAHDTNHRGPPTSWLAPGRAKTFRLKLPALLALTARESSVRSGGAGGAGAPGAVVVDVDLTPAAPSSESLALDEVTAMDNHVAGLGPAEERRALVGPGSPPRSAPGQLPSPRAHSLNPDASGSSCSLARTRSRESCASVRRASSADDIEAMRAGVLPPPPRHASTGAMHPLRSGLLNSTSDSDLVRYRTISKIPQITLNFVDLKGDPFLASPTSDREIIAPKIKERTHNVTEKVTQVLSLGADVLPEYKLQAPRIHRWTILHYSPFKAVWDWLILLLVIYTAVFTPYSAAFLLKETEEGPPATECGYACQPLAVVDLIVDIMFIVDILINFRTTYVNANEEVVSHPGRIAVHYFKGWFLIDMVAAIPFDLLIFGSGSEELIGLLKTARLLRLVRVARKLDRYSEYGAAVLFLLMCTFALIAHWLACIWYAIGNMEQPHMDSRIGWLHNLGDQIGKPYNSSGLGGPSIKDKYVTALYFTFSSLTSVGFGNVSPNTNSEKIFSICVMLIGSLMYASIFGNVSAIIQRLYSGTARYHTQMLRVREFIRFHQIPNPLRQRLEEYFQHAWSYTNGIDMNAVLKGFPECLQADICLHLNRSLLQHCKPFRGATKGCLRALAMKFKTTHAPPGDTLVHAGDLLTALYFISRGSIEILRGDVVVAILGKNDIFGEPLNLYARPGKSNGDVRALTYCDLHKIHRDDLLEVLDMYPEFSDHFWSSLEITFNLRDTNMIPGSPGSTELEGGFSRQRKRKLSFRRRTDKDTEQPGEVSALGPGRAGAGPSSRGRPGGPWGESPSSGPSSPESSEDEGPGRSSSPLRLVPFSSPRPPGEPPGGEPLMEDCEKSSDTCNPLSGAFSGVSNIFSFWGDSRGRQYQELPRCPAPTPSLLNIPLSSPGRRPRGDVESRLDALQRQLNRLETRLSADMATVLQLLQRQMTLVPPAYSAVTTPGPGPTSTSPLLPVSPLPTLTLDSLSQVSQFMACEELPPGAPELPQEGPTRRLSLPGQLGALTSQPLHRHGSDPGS

SMILES	hERG current change (%, negative = inhibition) at 1uM [%]
CC(NC(=O)c1ccc(Cn2cc([N+](=O)[O-])cn2)o1)c1ccccc1 (stereo not drawn)	-0.958
OC1CCCN(Cc2ccc3ccc4cccc5ccc2c3c45)C1 (stereo not drawn)	1.31
CCN(CCCNS(=O)(=O)c1cc(-c2cc(C)no2)ccc1C)Cc1ccccc1	-29.5
CN(CC(=O)Nc1ccc(F)cc1)C(=O)COC(=O)C1=COCCO1	-4.57
O=C(O)c1cc2ccccc2c(N=Nc2cccnc2)c1O	12.6
C1COCCO1.N#C/C(=C(/O)C(Cl)c1ccccc1)c1nc2ccccc2s1 (stereo not drawn)	3.94
COc1ccc(/C=N/Nc2snc(SC)c2C#N)cc1OC	7.72
Cc1ccc(-n2c(SCC(=O)Nc3ccc(N4CCOCC4)cc3)nc3ccccc3c2=O)cc1	11.2
CC1(C)Cc2nc3oc4c(N5CCOCC5)ncnc4c3cc2CO1	4.79
CCOC(=O)c1ccc(NC(=O)CSc2nc(N3CCOCC3)nc(N3CCOCC3)n2)cc1	7.53
O=C(NCc1ccco1)/C(=C/c1ccccc1F)NC(=O)c1ccccc1	18.7
CC1CCCC(C)N1CC(O)COC1CCC(C(C)(C)C)CC1.Cl (stereo not drawn)	4.92
O=C(CCCOc1ccc(Cl)cc1)NCCc1ccccc1	12.7
COc1ccc2c(c1)CC/C(=C\C=C\c1ccccc1OC)C2=O	10.2
CNC(=O)c1ccc(CNC(=O)OCc2ccccc2)cc1	15.9
c1ccc(-c2csc3ncnc(NCC4COc5ccccc5O4)c23)cc1 (stereo not drawn)	11.7
CCCCn1c(N)c(N(CC(C)C)C(=O)C2CC(=O)N(c3ccc(CC)cc3)C2)c(=O)[nH]c1=O (stereo not drawn)	23.8
Cn1c(=O)c(C#N)c(-c2ccc(F)cc2)c2cc(C(=O)c3cc(Cl)cc(Cl)c3O)cnc21	16
COCCCn1c(=O)/c(=C\c2ccccc2OC(C)C)s/c1=C(/C#N)C(=O)Nc1ccc(C(=O)O)cc1	9.85
CC(=O)c1cccc(S(=O)(=O)NC2CC2)c1	1.01
CCN(CC)S(=O)(=O)c1ccc(NC(=O)COC(=O)c2ccc(Br)o2)cc1	2.44
CNC(=O)c1ncnnc1N(C)C(=O)NCc1ccccc1	-6.97

SMILES	hERG current change (%, negative = inhibition) at 1uM [%]
Cc1ccc2nc(NC(=O)Cn3cc4c(n3)CCCCC4)sc2c1	-2.4
Cc1cccc(OCC(=O)Nc2ccc(CN3CCOCC3)cc2)c1C	10
CCOC(=O)/C=c1\s/c(=C\c2ccc3c(c2)OCCO3)c(=O)n1CC(=O)NCC1CCCO1 (stereo not drawn)	13.6
O=C(Nc1ccc(S(=O)(=O)NCc2ccco2)cc1)C1CCCCC1	8.13
CC1CCN(CC(=O)N2CCN(c3ccccc3)CC2)CC1	12.5
CC(C)(C)n1ncc2c(=O)n(CC(=O)c3ccc(Cl)cc3)cnc21	12.1
COc1ccc(F)cc1CN1CCN(C(=O)CCC(=O)Nc2nnc(CC(C)C)s2)CC1	16.8
COC(=O)c1cc(NC(=O)CC2CCCC2)cc(C(=O)OC)c1	10.1
Cc1ccc(-c2[nH]c(-c3ccc(Cl)cc3)nc2SCC(=O)NCC2CCCO2)cc1 (stereo not drawn)	10.3
Cc1ccccc1NC(=O)CSc1nc2scc(C)c2c(=O)[nH]1	12.8
O=c1c2ccccc2nc(-c2ccco2)n1CCc1ccc(O)cc1	16.4
CCCCNC(=O)c1onc(CSc2ccc(F)c(F)c2)c1C(=O)O	11
O=C(Nc1ccccc1C(=O)O)c1cccc(NC(=O)c2ccc(Br)o2)c1	13.2
CCOc1ccccc1N1CC(C(=O)Nc2ccc3c(c2)OCCO3)CC1=O (stereo not drawn)	13.5
CC(=NCCCN1CCOCC1)c1c(O)[nH]c(=O)[nH]c1=O	-0.735
COc1ccc2c(c1)C(=O)c1ccccc1CO2	17.9
CC1(C)CC(=O)C2=C(C1)N(c1ccc(F)cc1)C(=O)C2(O)C(F)(F)F (stereo not drawn)	1.75
CN1CCN(C(=O)C2=C[C@H](c3ccc(C(F)(F)F)cc3)C[C@H](OCCCCO)O2)CC1	-2.81
CC12C(=O)N(c3ccccc3C(=O)O)C(=O)C1C1C=CC2C1 (stereo not drawn)	5.95
COc1ccc(C(=O)CC(=O)C(=O)Nc2ccccc2C(F)(F)F)cc1	0.748
O=C1CCc2cc(S(=O)(=O)N3CCC(C(=O)NC4CCCC4)CC3)ccc2N1	3.09
O=C(CSCc1ccccc1)N=Nc1c(O)[nH]c2ccccc12	-0.77

SMILES	hERG current change (%, negative = inhibition) at 1uM [%]
CS(=O)(=O)c1nc(-c2ccccc2)cc(-c2ccccc2)c1C#N	7.18
CC(=O)Nc1sc(N/N=C/c2ccccc2F)nc1-c1ccc(C)cc1	8.32
Cc1cc(SCC(=O)N/N=C/c2cccnc2)nc2c(C)cccc12	0.949
COc1ccc(NC(=O)COC(=O)c2ccc(OCc3c(C)noc3C)cc2)cc1OC	9.12
COc1ccc2[nH]c(=O)c(C(c3nnnn3C3CCCCC3)N3CCN(C)CC3)cc2c1 (stereo not drawn)	-4.08
C/C(=N/NS(=O)(=O)c1ccc(Cl)cc1)c1cccc(O)c1	5.3
COc1ccc2[nH]c3c(c2c1)CCN[C@H]3C	16.2
COc1ccc(CC(CC(=O)O)C(=O)NCc2ccccc2)cc1 (stereo not drawn)	27.9
Cc1ccc(CC(=O)N2CCN(c3ccc([N+](=O)[O-])cc3)CC2)cc1	-30.4
O=[N+]([O-])c1cnc(N2CCCCC2)c([N+](=O)[O-])c1	14.1
Clc1cc(Cl)c(OCc2nc(-c3ccccn3)no2)cc1Cl	2.21
CC(=NCC1CCCO1)c1c(O)n(-c2ccccc2C)c(=O)[nH]c1=O (stereo not drawn)	13.7
CC(=O)NN1C(=O)/C(=C2/Sc3ccc(Cl)cc3N2C)SC1=S	12.3
CCc1ccc(S(=O)(=O)c2nnn3c2nc(NCCNC(C)=O)c2ccccc23)cc1	11
CCCCn1c(/C=C/c2ccco2)nc2ccccc21	7.23
COC(=O)C1CCN(C(=O)[C@H](C)NC(=O)C2CC(=O)N(c3ccc(F)cc3)C2)CC1 (stereo partly drawn)	7.63
Cc1ccc(/C=N/NC(=O)c2ccco2)s1	-2.51
COC(=O)/C=C1\N/C(=N\c2nc(C)cc(C)n2)N(c2ccccc2)C1=O	12.7
Cc1ccc(OCCNC(=O)Cc2ccc(S(=O)(=O)N3CCOCC3)s2)cc1	7.16
CCCCCOc1ccc(C(=O)CCN2CCOCC2)cc1.Cl	9.26
COc1ccc(C(=O)n2cnnc2N)cc1	5.04
Oc1ccc2ccccc2c1Br	12.1

SMILES	hERG current change (%, negative = inhibition) at 1uM [%]
CN(C(=O)C1CCC(=O)N(Cc2ccccc2F)C1)C1CCOCC1 (stereo not drawn)	12.3
CNC(=O)/C(C#N)=C/c1c(F)cccc1Cl	9.76
CC(N)C12CC3CC(C1)CC(C(C)N)(C3)C2.Cl (stereo not drawn)	8.36
O=C(O)CSc1c(-c2ccccc2)[nH]c2ccccc12	8.08
O=c1[nH]c2cc3c(cc2cc1CN(Cc1cccs1)Cc1nnnn1Cc1ccco1)OCCO3	1.09
Cc1cccc(NC(=O)C2CCCN2C(=O)NC2CCCCC2)c1 (stereo not drawn)	12.5
COc1cc(NC(=O)c2cc(C(C)C)on2)c(OC)cc1Cl	8.92
O=C(NCC(=O)N(Cc1cccs1)C(C(=O)NC1CCCCC1)c1cccnc1)c1ccco1 (stereo not drawn)	18.2
Nc1cccc(C(=O)Nc2ccc(N)cc2Cl)c1	6.12
CCOC(=O)C1=CC[C@@H](c2ccco2)N(S(=O)(=O)c2ccc(C)cc2)[C@H]1C(=O)OCC	11.1
COc1ccc(-c2cc(=O)n(CCC#N)[nH]2)cc1	21.1
CS(=O)(=O)c1cccc(C(=O)NC(c2ccccc2)c2ccccc2)c1	7.5
CCOCCCNC(=O)Cc1ccc(OC)c(OC)c1	7.94
Cc1onc(-c2c(Cl)cccc2Cl)c1C(=O)N[C@@H]1C(=O)N2[C@@H]1SC(C)(C)[C@@H]2C(=O)[O-].O.[Na+]	11
CCN(CC(=O)Nc1ccc2c(c1)OCCO2)C(=O)COc1ccc(C)cc1	10.5
O=C(O)/C=C/c1ccc(S(=O)(=O)Nc2ccccc2C(=O)Nc2ccc(F)cc2)cc1	16.6
CSc1nc(C)c(C(=O)C[n+]2ccccc2C)cc1C#N.[Br-]	-3.09
COCCNC(=O)C(c1ccc(O)cc1)N(C(=O)CCC(=O)Nc1nccs1)c1ccc(C)cc1 (stereo not drawn)	17.3
COC(=O)c1ccc(NC2c3ncccc3C(=O)N2Cc2cccs2)cc1 (stereo not drawn)	9.95
CCOc1ccc2[nH]c(=O)c(CN(Cc3ccc(F)cc3)C(=O)c3ccco3)cc2c1	-17.8
COc1ccccc1NC(=O)C(=N\O)/C(C)=N/O	11.6
